63 compounds from PubChem BioAssay AID1508624 (National Center for Advancing Translational Sciences (NCATS), 2021) can be followed below.

The campaign covered roughly 48,000 compounds. About 120 (0.25%) were called active. About 4% were inconclusive and are not listed. Calls come from the whole dose curve; as a rule, active = well fitted activation curve with a large enough effect; inconclusive = small, poorly fitted or top-dose-only effect, or another doubt; inactive = no such curve, though single readings can be large or run the other way. The list shows a part of the results.

The assay in a line: Primary qHTS for Identification of Small Molecule Activators of Huntingtin-Antisense Promoter Activity. Note: nearly all actives have a fitted effect of over 55% in size. The note with it: HEK293 HTT-AS promoter firefly luciferase reporter (activity 0% = vehicle and -100% = no light), 24 h; series mostly up to 57.5 µM; activity change, positive = activation: at the top concentration. An outline of the steps: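 Quantitative HTS used concentration series of up to 57.5 uM final on HEK293 luciferase reporter cells, 24 h at 37 degrees C. Readout was Dual-Glo firefly luminescence.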
For `Cc1nc2nncn2c(NCc2ccc(Cl)cc2)c1C`, the “activity change, positive = activation” value is inactive: -49.4%.

`Cc1ccc(-n2c(=O)c3c4c(sc3n(Cc3cccc(Cl)c3)c2=O)CCC4)cc1C`: the “activity change, positive = activation” value was inactive: -19.9%.

`Cc1ccc(CN(C(=O)COc2ccc(Cl)c(C)c2)C2CCS(=O)(=O)C2)o1` (stereo not drawn): the “activity change, positive = activation” value is inactive: -36.1%.

Turning to `Cc1nc2nc(SCC(=O)O)nn2c(C)c1Cc1c(F)cccc1Cl`, the “activity change, positive = activation” value was inactive: 7.28%.

With `Cc1ccc(Cl)cc1NC(=O)Cn1c(=O)n(CCCS(=O)(=O)C2CCCCC2)c(=O)c2ccccc21`, the “activity change, positive = activation” value is inactive: -25.4%.

Consider `Cc1csc2nc(COC(=O)c3ccccc3NC(=O)COc3ccccc3F)cc(=O)n12`, for which the “activity change, positive = activation” value was inactive: -35.8%.

Consider `CCOc1ccc(NC(=O)CC2C(=O)N(c3ccccc3)C(=O)N2C2CCCCC2)cc1` (stereo not drawn), for which the “activity change, positive = activation” value was inactive: 0%.

In the case of `O=c1c2cn[nH]c2nc(SCc2cccc(Br)c2)n1-c1ccc(Cl)cc1`, the “activity change, positive = activation” value is inactive: -31.5%.

Turning to `COc1ccccc1CNC(=O)NCc1noc2ccc(C)cc12`, the “activity change, positive = activation” value is inactive: -15.3%.

For `COc1ccc(CNC(=O)c2nc(SC(C)C)ncc2Cl)cc1`, the “activity change, positive = activation” value was inactive: 10.7%.

As for `CCOC(=O)c1c(-c2ccccc2)csc1NC(=O)c1cc(-c2ccc(Br)cc2)on1`, the “activity change, positive = activation” value was inactive: -4.78%.

In the case of `Cc1nc2ccc(S(=O)(=O)CCC(=O)Nc3ccc(C)c(C)c3)cc2s1`, the “activity change, positive = activation” value was inactive: -21.2%.

Consider `COCCCNC(=O)c1sc2nc3n(c(=O)c2c1C)CCC3`, for which the “activity change, positive = activation” value is inactive: 13%.

With `CCOc1ccc(CCNC(=O)CCc2c(C)nc3c(-c4ccccc4)c(C)nn3c2C)cc1OCC`, the “activity change, positive = activation” value was inactive: -0.283%.

`COc1cc2c(cc1OC)C(COc1ccc3c(C)cc(=O)oc3c1)N(C(=O)C(C)C)CC2` (stereo not drawn): the “activity change, positive = activation” value was inactive: -23.5%.

As for `CCOC(=O)c1nc(Nc2ccc(C(C)=O)cc2)c2ccccc2n1`, the “activity change, positive = activation” value was inactive: -11.9%.

Regarding `O=C(Nc1c(C(=O)Nc2ccc(F)cc2)oc2ccccc12)c1cc2ccccc2o1`, the “activity change, positive = activation” value is inactive: 23.7%.

Take `Cn1ccc2cc3c(cc21)CCN3C(=O)Nc1cccnc1`: the “activity change, positive = activation” value is inactive: 16.2%.

On to `COc1ccc(Cn2c(=O)c3cccnc3n(CC(=O)Nc3ccc(C)c(F)c3)c2=O)cc1`, for which the “activity change, positive = activation” value is inactive: -19.2%.

`Cc1cccc(-n2ccnc2SCC(=O)Nc2ccc(F)cc2F)c1C`: the “activity change, positive = activation” value is inactive: -37%.

With `Cc1cc(Oc2c(C(F)(F)F)oc3c(CN4CCC(C)CC4)c(O)ccc3c2=O)cc(C)c1Cl`, the “activity change, positive = activation” value was inactive: -8.9%.

As for `O=C(Cn1c(=O)oc2cc(S(=O)(=O)N3CCCCCC3)ccc21)NCc1ccccc1Cl`, the “activity change, positive = activation” value was inactive: -54.5%.

With `Cc1ccc(C)c(CN2CCC(CNC(=O)Nc3ccc(Br)cc3F)CC2)c1`, the “activity change, positive = activation” value is inactive: -37.4%.

`Cc1ccc(C)c(CNC(=O)c2ccc3c(c2)nc2n3CCCCC2)c1`: the “activity change, positive = activation” value was inactive: 3.31%.

Turning to `C=CCc1cccc(C=NNC(=O)CN2CCN(Cc3ccccc3)CC2)c1O`, the “activity change, positive = activation” value is inactive: -24.6%.

Take `COc1ccc(-c2c3c(=O)n(C)c(=O)n(C)c3c3c(-c4cccc(C)c4)nc4ccccc4n23)cc1`: the “activity change, positive = activation” value was inactive: -27.4%.

As to `COc1ccc(S(=O)(=O)NCCCO)cc1-c1nnc2c3ccccc3c(C)nn12`, the “activity change, positive = activation” value was inactive: 2.55%.

For `CCOc1ccc(NC(=O)Cn2cc(C(=O)c3ccc(CC)cc3)c(=O)c3cc(OC)c(OC)cc32)cc1`, the “activity change, positive = activation” value is inactive: -5.2%.

`COc1ccc(NS(=O)(=O)c2ccc3c(c2)CCN3C(=O)CCC(=O)O)cc1Cl`: the “activity change, positive = activation” value is inactive: -4.49%.

Consider `COc1ccc2cc3cc(C(=O)N4CCN(c5cccc(Cl)c5)CC4)sc3nc2c1`, for which the “activity change, positive = activation” value is inactive: 2.99%.

`CCc1ccc(-n2c(=O)c3sc4ccccc4c3n(CC(=O)NC3CCCCC3)c2=O)cc1`: the “activity change, positive = activation” value is inactive: -4.78%.

Regarding `Cc1ccc(NC(=O)Cn2nc(-c3ccncc3)ccc2=O)cc1Cl`, the “activity change, positive = activation” value was inactive: -10.3%.

Take `CCOC(=O)c1ccc2c(c1)N(C(CC)C(=O)Nc1ccccc1OC)C(=O)c1ccccc1S2` (stereo not drawn): the “activity change, positive = activation” value was inactive: -25%.

As for `CC(C)CCNC(=O)CSc1nc2ccccc2nc1Cc1ccccc1`, the “activity change, positive = activation” value is inactive: -9.45%.

For the compound `Cc1cc(NC(=O)CCS(=O)(=O)c2cc(Br)cc3c2N(C(=O)C2CC2)CC3)ccc1Br`, the “activity change, positive = activation” value is inactive: -17.8%.

As for `CCOc1ccccc1CNC(=O)c1cc2n(n1)CCCN(Cc1ccc(C)cc1)C2=O`, the “activity change, positive = activation” value is inactive: -22.6%.

As to `CCOc1ccc(NC(=O)CSc2nc(C)c(C(=O)Nc3ccccc3)c(-c3ccc(Cl)cc3)c2C#N)cc1`, the “activity change, positive = activation” value is inactive: 8.09%.

Regarding `CCc1cccc(-n2c(C)nc3c(cnn3-c3ccc(C)c(C)c3)c2=O)c1`, the “activity change, positive = activation” value was inactive: -6.91%.

`O=C(Nc1ccc(OC(F)(F)F)cc1)c1nc2ccccc2nc1N1CCCCC1`: the “activity change, positive = activation” value was inactive: -6.19%.

Consider `CCn1c2ccccc2c2cc(CN3CCN(Cc4ccccc4Cl)CC3)ccc21`, for which the “activity change, positive = activation” value is inactive: -18.4%.

Consider `COc1cccc(NC(=O)CSc2nc3cc(OC)c(OC)cc3c3nc(-c4ccccc4)nn23)c1`, for which the “activity change, positive = activation” value is inactive: 0.989%.

Consider `CC(=O)Nc1ccc(S(=O)(=O)Nc2cc(C)on2)cc1`, for which the “activity change, positive = activation” value was inactive: -0.0382%.

As to `COc1cc(OC)c(NC2(c3ccccc3)C(=O)c3ccccc3C2=O)cc1Cl`, the “activity change, positive = activation” value was inactive: -9.05%.

In the case of `C[C@H](NC(=O)OC(C)(C)C)c1nnc(SCc2c(F)cccc2Cl)o1`, the “activity change, positive = activation” value is inactive: -23.9%.

`CCc1ccc(NC(=O)Cn2nc3c4ccccc4n(Cc4ccccc4)cc-3c2=O)cc1`: the “activity change, positive = activation” value was inactive: -7.19%.

In the case of `O=C(O)CP(=O)(O)O`, the “activity change, positive = activation” value was inactive: 2.46%.

Take `O=C(c1ccc(CSc2nc3ccncc3n2Cc2ccc(F)cc2)cc1)N1CCCCCC1`: the “activity change, positive = activation” value was inactive: -17.6%.

With `COCCCNC(=O)c1cc2c(=O)oc3ccc(C)cc3c2s1`, the “activity change, positive = activation” value is inactive: -17.9%.

Consider `CCc1nc2ccc(C(=O)N3CCN(c4cccc(C)c4C)CC3)cc2nc1CC`, for which the “activity change, positive = activation” value was inactive: 10.8%.

`CCOc1ccc(-c2cc(OC(=O)c3ccc(OC)cc3)c3c(C)oc(C)c3c(=O)c2)cc1`: the “activity change, positive = activation” value is inactive: -13.5%.

As for `CCOc1ccc(C(=O)N(Cc2sccc2C)C2CCS(=O)(=O)C2)cc1` (stereo not drawn), the “activity change, positive = activation” value was inactive: -17.8%.

Take `O=C1CC(c2cccc(O)c2)c2c(nc(SCc3ccccc3F)[nH]c2=O)N1` (stereo not drawn): the “activity change, positive = activation” value was inactive: -1.68%.

For the compound `CCC1CN(C(=O)N2CCC(C(=O)Nc3ccccc3F)CC2)c2ccccc2O1` (stereo not drawn), the “activity change, positive = activation” value was inactive: -23.4%.

Consider `CCNC(=O)/C=C/c1cccc(Br)c1`, for which the “activity change, positive = activation” value was inactive: 17.8%.

Take `CC(C)NCCCC1(C(N)=O)c2ccccc2-c2ccccc21`: the “activity change, positive = activation” value is inactive: -12.6%.

Consider `CCCC(=O)Nc1ccccc1OCc1cc(=O)n2cc(C)ccc2n1`, for which the “activity change, positive = activation” value is inactive: -5.35%.

`Cc1ccc(CCNC(=O)c2ccc3c(Cl)c4c(nc3c2)CCCC4)cc1`: the “activity change, positive = activation” value is inactive: -28%.

As for `COc1ccc(NC(=O)CN2C(=O)COc3ccc(S(=O)(=O)N4CCCCCC4)cc32)cc1`, the “activity change, positive = activation” value is inactive: -9.52%.

With `Cc1ccc(C)c(N2CCN(c3c(CN4CCCC4)c(=O)oc4ccccc34)CC2)c1`, the “activity change, positive = activation” value was inactive: -5.32%.

Take `COc1ccccc1CNC(=O)c1ccc2nc(N3CCCCC3)sc2c1`: the “activity change, positive = activation” value is inactive: -28.5%.

As to `O=C(Nc1cccc(Cl)c1Cl)c1cc(S(=O)(=O)NCc2ccc3c(c2)OCO3)ccc1F`, the “activity change, positive = activation” value was inactive: -12.6%.

In the case of `Cc1ccc(-n2c(=O)cc(N3CCN(c4ccccc4Cl)CC3)[nH]c2=O)cc1`, the “activity change, positive = activation” value was inactive: -19.4%.

With `Cc1ccc(CN2CCCN(CC(=O)Nc3ccc(C)cc3C)S2(=O)=O)cc1`, the “activity change, positive = activation” value was inactive: -9.06%.
